From PubChem BioAssay AID1346428 (National Center for Advancing Translational Sciences (NCATS), 2018)
Among all 48,000 compounds or so, about 1,200 (2.5%) were called active. Another 2% or so got no clear call; they are omitted.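 The calls were made as follows: active = activation of at least 60% and not above a set upper limit (about 1 call in 100 departs from these limits); inconclusive = activation of 40% to 60%, or above that upper limit; inactive = activation under 40%.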 The list shows a part of the results.

What follows are compounds tested against Probable G-protein coupled receptor 32 (Homo sapiens) (UniProt O75388) (assay: qHTS for Agonists of Human Resolvin D1 Receptor DRV1). Conditions: CHO-K1 GPR32 beta-arrestin PathHunter luminescence, 90 min; at 76.9 µM; active compounds read high; zero percent set by DMSO-only wells.
UniProt O75388, sequence (O75388 whole entry, looked up, the tested form may be a part): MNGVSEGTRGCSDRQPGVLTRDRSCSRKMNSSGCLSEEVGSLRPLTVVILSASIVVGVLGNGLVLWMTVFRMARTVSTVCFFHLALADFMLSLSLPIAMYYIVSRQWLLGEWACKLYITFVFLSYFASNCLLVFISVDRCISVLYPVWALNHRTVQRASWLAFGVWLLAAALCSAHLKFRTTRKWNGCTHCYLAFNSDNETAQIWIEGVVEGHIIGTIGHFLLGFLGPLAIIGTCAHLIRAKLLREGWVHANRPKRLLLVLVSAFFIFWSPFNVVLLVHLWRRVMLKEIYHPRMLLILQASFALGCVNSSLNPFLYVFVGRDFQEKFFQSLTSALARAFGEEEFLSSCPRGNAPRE
Summary of the method: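 Agonism was scored as beta-arrestin recruitment to ProLink-fused GPR32 in stably transfected CHO-K1 cells, giving a chemiluminescent beta-Gal signal; compounds were incubated 90 min at 37 °C.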
Also: 0% is about no effect.

activation, inactive:
Cc1ccc(NC(=O)CSc2cn(CC(=O)N3CCCC3)c3ccccc23)cc1Cl 6.34%
CCOc1ccc(NS(=O)(=O)c2ccc3c(c2)CCCN3C(=O)C2CCC2)cc1 -28.8%
COc1ccccc1CNC(=O)c1cn(C)c2ccc(S(=O)(=O)N(C)C3CCCCC3)cc2c1=O -18.5%
CC(Cc1ccccc1)(NC(=O)CN)c1ccccc1 (centres undefined) -96.2%
Cc1ccc(NC(=O)Cn2c(=O)nc(-c3ccccc3)c3ccccc32)cc1F 0.613%
COc1ccc(CCNc2ncnc3c2cnn3-c2cc(Cl)ccc2C)cc1 47.5%
COc1ccc(Cn2c(SCC(=O)N(C)Cc3ccccc3)nc3ccccc32)cc1 -49%
CC(C)(C)C1CCc2oc3ccc(NS(=O)(=O)c4ccc(C(=O)O)cc4)cc3c2C1 (centres undefined) 47.2%
CC1CCN(S(=O)(=O)c2ccc3c(ccc(=O)n3CC(=O)Nc3cccc(F)c3)c2)CC1 -17.5%
Cc1cccc(-c2noc(-c3ccc(N4CCOCC4)c([N+](=O)[O-])c3)n2)c1 24.2%
O=C(Nc1cnc(N2CCN(c3ccccc3)CC2)c(C(=O)O)c1)c1cccs1 -5.46%
CN1CCc2c(sc3c2C(=O)NC(c2ccc(C(C)(C)C)cc2)N3)C1 (centres undefined) -7.01%
CC1CCCCN1C(=O)c1cc(-c2ccc(Br)cc2)on1 (centres undefined) -12.5%
CCOC(=O)C1CCN(c2nc3c(S(=O)(=O)c4ccc(C)c(C)c4)nnn3c3ccc(Cl)cc23)CC1 -15.7%
CC1=C(C(=O)N2CCN(c3cccc(Cl)c3)CC2)C2(CCCCC2)OC1=O 2.55%
COc1ccc(C2N=C(N)Nc3nc4ccccc4n32)cc1 (centres undefined) -6.6%
COc1ccc(N(Cc2cc3cccc(C)c3[nH]c2=O)C(=O)c2cccc(Cl)c2)cc1 -11.4%
CCc1cccc(-n2c(=O)c3cccnc3n2CC(=O)Nc2c(C)cc(C)cc2C)c1 0.458%
O=[N+]([O-])c1cccc2c(Br)[nH]nc12 3.45%
COc1ccc2nc(N(Cc3cccnc3)C(=O)Cc3ccccc3)sc2c1 -17%
CN(C)S(=O)(=O)c1ccc(C(=O)NCCSc2c(-c3ccccc3)[nH]c3ccccc23)cc1 -18.4%
CC(=O)N1CCc2cc(S(=O)(=O)C(C)CC(=O)Nc3ccc(Br)c(C)c3)ccc21 (centres undefined) 28.9%
CC(=O)Nc1ccc(S(=O)(=O)NC2=NCN(CCO)CN2)cc1 -5.12%
Fc1cccc(-c2nnn3c2nc(NC2CCCCC2)c2ccccc23)c1 6.85%
COc1ccc(NC(=O)C2=C(C)Nc3ncnn3C2c2cccn2C)cc1 (centres undefined) -7.58%
CC1CCN(CC2CCN(C(=O)Nc3ccc(Br)cc3F)CC2)CC1 8.72%
Cc1cccc(-n2c(CNC(=O)c3cccc(F)c3)nnc2SCC(=O)Nc2ccccc2F)c1 1.21%
COc1ccccc1CNC(=O)CN1C(=O)COc2ccc(S(=O)(=O)NC3CCCC3)cc21 -10.9%
O=C(C1CCN(S(=O)(=O)Cc2ccccc2)CC1)N1CCN(c2cccc(C(F)(F)F)c2)CC1 21%
CCOC(=O)c1c(NC(=O)c2ccc(S(=O)(=O)N(C)C3CCCCC3)cc2)sc2c1CCN(C(C)C)C2 -14.3%
Cc1noc(C)c1S(=O)(=O)N(CC(=O)NCCc1ccccc1)c1ccc(C(C)C)cc1 -1.65%
COc1ccc(Cc2cnc(N)nc2N)cc1OC -1.04%
COC(=O)c1ccccc1NC(=O)c1sc2nc(C)cc(C)c2c1NC(=O)c1ccccc1OC -6.29%
CCOCCCN1C(=O)c2ccccc2CC1(C)C(=O)NC1CCCCC1 (centres undefined) -13.5%
Cc1ccc(CCNc2ncnc3onc(-c4ccc(Cl)cc4)c23)cc1 3.68%
COc1ccc(CNC(=O)CN2C(=O)CSc3ccc(S(=O)(=O)N4CCC(C)CC4)cc32)cc1 -13.3%
COc1ccc(/C=C/C(=O)Nc2nc(-c3cccs3)ns2)cc1 14.1%
COc1ccc(NC(=O)CSc2nc3c(oc4ccccc43)c(=O)n2Cc2ccco2)cc1Cl -3.41%
COc1ccc(CNC(=O)C2CCC(CNS(=O)(=O)c3ccc4c(c3)CCCC(=O)N4)CC2)cc1 (centres undefined) 1.99%
Cc1ccc(-c2cn3c(n2)sc2cc(C(=O)NCCC4=CCCCC4)ccc23)cc1 -7.18%
COc1cc(-c2nc(Cn3nnc(C(=O)Nc4cccc(Cl)c4)c3C)c(C)o2)cc(OC)c1OC 1.88%
COc1ccc(-c2nc(S(=O)(=O)c3ccc(Cl)cc3)c(NCc3ccccc3)o2)cc1 -10.2%
Nc1c(I)cc(I)c(C(=O)N(CCC(=O)O)c2ccccc2)c1I -21.2%
Cc1nnc(NC(=O)CSCc2cc(=O)c3ccccc3[nH]2)s1 -2.49%
COc1cc(OC)c(NS(=O)(=O)c2c(C(=O)N3CCC(C)CC3)c(C)n(C)c2C)cc1Cl -14.5%
Cc1cc(Nc2ccc(C(=O)O)c(O)c2)n2ncnc2n1 -77%
COc1ccc(CCNC(=O)CCn2c(=O)c3ccccc3n(Cc3ccccc3)c2=O)cc1OC 0.658%
CC(C)c1nn2c(=O)cc(COC(=O)c3ccccc3NC(=O)c3cccc(Cl)c3)nc2s1 -16.5%
CN(C)CCNc1oc(-c2ccc(COc3ccc(Cl)cc3)o2)nc1C#N 0.359%
Cc1nc2ccn(Cc3cccnc3)c(=O)c2cc1C(=O)N1CCN(c2ccc(F)cc2)CC1 -6.02%
COC(=O)c1ccccc1NC(=O)c1cnc2c(-c3cccc(C)c3)c(C)nn2c1C -7.89%
CCS(=O)(=O)N1CC(=O)N(c2ccc(Cl)cc2)C(C)(C(=O)NC2CCCCCC2)C1 (centres undefined) -0.0288%

activation, active:
Cc1ccc2c(=O)cc(C(=O)Nc3ccc(S(=O)(=O)Nc4ncccn4)cc3)oc2c1C 66.6%
Cc1ccc(Cl)cc1-n1ncc2c(N3CCN(Cc4ccccc4)CC3)ncnc21 85.2%
